“Also recorded” adds a separate entry of the source.
Experiments:
SK-BR-3 = assay: Immunocytochemical fixation of antibody on tumor cells (peroxidase); assay type: binding; conditions: m906 650 ng/mL, trastuzumab 40 ng/mL; CD56-negative HER2-positive control line
primary NK cells = assay: Killing effect on primary NK cells (Annexin V / 7-AAD flow cytometry); assay type: cell-based, human; conditions: in words
Description: (§1) Primary natural killer cells (NK) and monocytes were obtained from blood of healthy adult volunteers at the Etablissement Français du Sang, according to institutional research protection guidelines agreement N° CA-REC-2019-188, Centre Val de Loire, France. Ficoll density centrifugation step (Eurobio) was performed to isolate peripheral blood mononuclear cells (PBMC).
NK cells were isolated from PBMC by negative selection (NK cell isolation kit human, Miltenyi Biotec) with purity higher than 95%. NK cells were cultured for up to 36 h in RPMI 1640 supplemented with 10% FCS, 1% penicillin and streptomycin, 1% L-glutamine and 100 UI/mL IL-2 at 37° C., 5% CO2 at 1.10^6 cells/mL.

MKL-2 = assay: Immunocytochemical fixation of antibody on tumor cells (peroxidase); assay type: binding; conditions: m906 650 ng/mL, trastuzumab 40 ng/mL; peroxidase secondary antibody
[1] = tested on: H69 small cell lung carcinoma cell line
Description: (§2) In order to evaluate cell viability, a cytotoxicity test using XTT was carried out. The cells were deposited in a 96-well plate (50 000 cells/well) in 7 replicates. […] The culture medium acted as a negative control. After 4 days of exposure to the drug, 25 μL of reagent XTT was added per well and the absorption was measured at 450 nm after 4 hours of incubation at 37° C. The absorption at 620 nm was used as a reference.

[2] = tested on: MCC lines (WaGa, PeTa, MS-1, MKL-2)
Description: as §2

MS-1 = assay: Immunocytochemical fixation of antibody on tumor cells (peroxidase); assay type: binding; conditions: m906 650 ng/mL, trastuzumab 40 ng/mL; peroxidase secondary antibody
neutrophils = assay: Killing effect on neutrophils (Annexin V / 7-AAD flow cytometry); assay type: cell-based, human; conditions: after 4 h of incubation; CD56 negative cells; at high concentration
Source text: The neutrophils were isolated directly from whole blood of healthy adult volunteers at the Etablissement Français du Sang, according to institutional research protection guidelines agreement N° CA-REC-2019-188, Centre Val de Loire, France, by negative selection, using the kit (MACSxpress® Whole Blood Neutrophil Isolation Kit, MiltenyBiotech™). The neutrophils were used directly following their isolation and then resuspended in HBSS buffer (1X) (Gibco 15266355), at 1×10^6 cells/mL.
(§3) 5% of CO2. […] All products were tested after 4 days treatment on NK cells and 4 h on monocytes and neutrophils.

PeTa = assay: Immunocytochemical fixation of antibody on tumor cells (peroxidase); assay type: binding; conditions: m906 650 ng/mL, trastuzumab 40 ng/mL; peroxidase secondary antibody
WaGa = assay: as above; assay type: binding; conditions: m906 650 ng/mL, trastuzumab 40 ng/mL; peroxidase secondary antibody
WaGa cells = assay: Imaging flow cytometry, internalisation and lysosomal co-localization of m906-Alexa Fluor 750; assay type: cell-based; conditions: for BDS score (LAMP1/m906): Bright Detail Similarity, lysosomal co-localization; for Intracellular fluorescence of m906 (MFI) / m906 fluorescence surface (MFI): m906-Alexa Fluor 750, WaGa; for Internalisation score for m906: positive score = internalized
Description: In order to confirm its internalisation into the tumor cells, the antibody m906 was conjugated with Alexa Fluor 750 using the “SAIVI Rapid Antibody Labeling Kit” (Thermoscientific) following the instructions provided by the manufacturer. The WaGa cells (500 000 cells) were incubated for 30 min at ambient temperature with the conjugate m906-Alexa Fluor 750 in a buffer solution (PBS 1X, 2% fetal calf serum, 0.1% sodium azide). The cells were then fixed with the aid of BD Cytofix/Cytoperm (BD Biosciences) and permeabilized with Permwash (BD Biosciences, diluted to 1/10e) in accordance with the instructions from the manufacturer. The nuclear and lysosomal compartments were labeled with Hoechst 33342 (BD Pharmigen, 1/10000) and an anti-LAMP1 antibody coupled to phycoerythrin-Cyanine 5 (BD Pharmigen, H4A3), respectively. The analysis of the labeled cells was carried out with the aid of an Amnis® ImageStream®X Mark II flow cytometry imager (Amnis Corp., part of EMD Millipore, Seattle, WA) equipped with 4 lasers (375 nm, 488 nm, 642 nm and 785 nm (SSC)). The images for the WaGa cells were captured with Inspire™ imaging flow cytometry software at a magnification of 60X and with an extended depth of field (EDF).
Compensations were made before each analysis. The cells of interest were identified using the “Gradient RMS” tool of the Bright Field image (BF: white light). Debris and cellular doublets were excluded from the analysis as a function of the aspect ratio with respect to the zone of the BF image. The surface area and the mean intensity of the intracellular fluorescence (IMF) of the m906 conjugated with Alexa Fluor 750 (channel 12) was evaluated for 2 different incubation times (5 and 30 min) with the aid of the “surface mask” and “cytoplasm mask” tools, using the IDEAS® v6.2 software. The internalisation score for the m906 conjugated with Alexa Fluor 750 (channel 12) was determined using the internalisation function, allowing the ratio of the intensity of intracellular fluorescence to the intensity of the whole cells to be defined. Cells with internalized antibodies have positive scores. The co-localization assistant using the “Bright Detail Similarity” (BDS) function was employed in order to quantify the level of co-localization between the anti-LAMP1 antibody conjugated with phycoerythrin-Cyanine 5 (channel 5) and the m906 conjugated with Alexa Fluor 750 (channel 12). The positive score for BDS (n. 1) indicates lysosomal localization for the m906.

[3] = tested on: CD56+ cell lines (WaGa, PeTa, MKL-1, H69, H209, H660); assay: Flow cytometry binding of Alexa Fluor 750 labelled antibodies, CD56+ cell lines; conditions: 4° C., 30 minutes, in words
Description: (§4) Binding levels of L and mAb-003 have been evaluated on several tumor cell lines: MCC (WaGa, PeTa, MKL-1), SCLC (H69, H209) and prostate cancers (H660) as well as WaGa, PeTa and MKL-1 CD56-knocked out using CRISPR technology.
(§5) The L and mAb-003 were labelled with Alexa Fluor 750 (Alexa Fluor 750 Protein Labelling Kit, Invitrogen) to allow their detection by flow cytometry. The labelled antibodies were incubated with 1.10^5 cells at 4° C. for 30 minutes, then cells were washed twice with PBS supplemented with 1% FCS, and the binding was analysed by Flow cytometry on Cytoflex.

[4] = tested on: CD56− cells (CRISPR WaGa, PeTa, MKL-1); assay: Flow cytometry binding of Alexa Fluor 750 labelled antibodies, CD56- CRISPR cell lines; conditions: 4° C., 30 minutes, in words
Description: as §4, §5

WaGa xenograft = assay: Maximal tolerated dose evaluation on tumor bearing mice, single IV injection; assay type: in vivo, NOD/SCID mice; conditions: 70 mg/kg, ethical end point
MKL-1 CRISPR CD56 = assay: XTT assay, ADC-mediated cytotoxicity; assay type: cell-based; conditions: 4 days, CD56− cells, read-out: MKL-1 CRISPR CD56 n = 3 IC50
monocytes = assay: Killing effect on monocytes (Annexin V / 7-AAD flow cytometry); assay type: cell-based, human; conditions: after 4 h of incubation; in words
Description: as §1
Monocytes were isolated from PBMC by positive selection using anti-CD14 MicroBeads (Miltenyi Biotec) according to manufacturer recommendations. Monocytes were cultured in serum-free X-VIVO-15 medium (Lonza) at 1.10^6 cells/mL.
as §3

[5] = tested on: WaGa CD56 wild-type and WaGa CD56 knockout cells; conditions: MIO-003 at 5 or 50 nM for 6 days; in words
[6] = tested on: CD56− cells (CRISPR-MCC cell lines WaGa and MKL-1); assay: XTT assay, summary over CD56- CRISPR-MCC cell lines; assay type: cell-based; conditions: at high doses; in words
Description: To evaluate cell viability and cellular metabolic activity, XTT assays were performed according to standard protocols. WaGa, PeTa, H69, H209, H660 cell lines were plated in 3 replicates in a 96-well plate with 5.10^4 cells/well. […] Untreated cells were used as viability reference. Cells treated with 1% Triton X100 were used as cell death positive control. After 4 days, 25 μL XTT reagent at 1 mg/mL (Alfa Aesar, thermo Fisher) with N-methyl dibenzopyrazine methyl sulfate (PMS) activator (25 μM) was added per well and absorbance was measured at 450 nm after 4 h incubation. Absorbance at 620 nm was used as a reference. Three independent experiments have been performed.

B1: m906: human anti-CD56 antibody of type IgG1, light chain SEQ ID NO: 7, heavy chain SEQ ID NO: 8 (antibody)
heavy: EVQLVQSGAEVKKPGSSVKVSCKASGGTFTGYYMHWVRQAPGQGLEWMGWINPNSGGTNYAQKFQGRVTMTRDTSISTAYMELSRLRSDDTAVYYCARDLSSGYSGYFDYWGQGTLVTVSS[omitted - human IgG1 constant region]
light: DVVMTQSPLSLPVTPGEPASISCRSSQSLLHSNGYNFLDWYLQKPGQSPQLLIYLGSNRASGVPDRFSGSGSGTDFTLKISRVEADDVGVYYCMQSLQTPWTFGHGTKVEIKRTVAAPSVFIFPPSDEQLKSGTASVVCLLNNFYPREAKVQWKVDNALQSGNSQESVTEQDSKDSTYSLSSTLTLSKADYEKHKVYACEVTHQGLSSPVTKSFNRGEC
modifications: Chaine lourde du m906; Chaine l g re du m906
Binding (fixation) to cell line SKBR3 (SK-BR-3): − | Killing effect on primary NK cells (ADCC) (primary NK cells; after 4 h of incubation, listed as mAb-001): exerted a killing effect; also recorded: lower killing effect | Binding (fixation) to cell line MKL-2 (MKL-2): + | Cytotoxic effect [1]: neither the antibody m906 (i.e. non coupled to MMAE), nor the ADC MF-TTZ-MMAE (ADC control) has a cytotoxic effect | Cytotoxic effect [2]: neither the antibody m906 (i.e. non coupled to MMAE), nor the ADC MF-TTZ-MMAE (ADC control) has a cytotoxic effect | Binding (fixation) to cell line MS-1 (MS-1): + | Killing effect towards neutrophils (neutrophils): below 10% | Binding (fixation) to cell line PeTa (PeTa): + | Binding (fixation) to cell line WaGa (WaGa): + | Internalisation in WaGa cells expressing CD56 (WaGa cells; in words): internalized in the lysosome | BDS score (LAMP1/m906) (WaGa cells; incubation period 5 minutes): 1.4 | Intracellular fluorescence of m906 (MFI) (WaGa cells; incubation period 5 minutes): 50046 MFI | m906 fluorescence surface (MFI) (WaGa cells; incubation period 5 minutes): 930 MFI | Internalisation score for m906 (WaGa cells; incubation period 5 minutes): 7.08 | BDS score (LAMP1/m906) (WaGa cells; incubation period 30 minutes): 1.4 | Intracellular fluorescence of m906 (MFI) (WaGa cells; incubation period 30 minutes): 50464 MFI | m906 fluorescence surface (MFI) (WaGa cells; incubation period 30 minutes): 580 MFI | Internalisation score for m906 (WaGa cells; incubation period 30 minutes): 7.96

B2: mAb-003: Deglycosylated m906, Asn297 mutated; light chain SEQ ID NO: 7, heavy chain SEQ ID NO: 17 (antibody)
heavy: EVQLVQSGAEVKKPGSSVKVSCKASGGTFTGYYMHWVRQAPGQGLEWMGWINPNSGGTNYAQKFQGRVTMTRDTSISTAYMELSRLRSDDTAVYYCARDLSSGYSGYFDYWGQGTLVTVSS[omitted - human IgG1 constant region with changes]
light: B1 light
modifications: Asn297 mutated, deglycosylated; Chaine l g re du m906
Killing effect on primary NK cells (primary NK cells; after 4 days of incubation): reducing drastically the ADCC killing effect | Binding to CD56+ cells [3]: strong binding | Binding to CD56− cells (CRISPR cells) [4]: without any binding

B3: MIO-003 (conjugate)
heavy: EVQLVQSGAEVKKPGSSVKVSCKASGGTFTGYYMHWVRQAPGQGLEWMGWINPNSGGTNYAQKFQGRVTMTRDTSISTAYMELSRLRSDDTAVYYCARDLSSGYSGYFDYWGQGTLVTVSS[omitted - human IgG1 constant region with changes]
light: B1 light
mice weight variation (WaGa xenograft): exceeded 20% | IC50 (MKL-1 CRISPR CD56): 637 nM | Killing effect on monocytes (monocytes): negligible killing effect | Killing effect towards neutrophils (neutrophils): around 5% | Bystander effect (G2/M arrest, sub-G1 increase) [5]: exerted a bystander effect | Cytotoxicity on CD56− cells [6]: not cytotoxic

— patent publication US20230405140A1, “ANTI-CD56 ANTIBODY-DRUG CONJUGATES AND THEIR USE IN THERAPY” (MCSAF INSIDE ONCOLOGY, priority 2020, published 2023)
